Experimental data reported in article PMC6914800.
Numbering of substitutions follows the chain as printed. Results are given in words; binding and its absence hold for the method and conditions named. For some assays here: Binding seen in cells or lysates may run through a third protein. Some entries that bind do so weakly or less than the wild type. For some assays here: Where a sequence is shown, tags or fusion partners need not be part of it.

Amino acid sequences for entries named in this document (tags omitted). Residues count along the entry.
UniProt P08581, residues 25-1390: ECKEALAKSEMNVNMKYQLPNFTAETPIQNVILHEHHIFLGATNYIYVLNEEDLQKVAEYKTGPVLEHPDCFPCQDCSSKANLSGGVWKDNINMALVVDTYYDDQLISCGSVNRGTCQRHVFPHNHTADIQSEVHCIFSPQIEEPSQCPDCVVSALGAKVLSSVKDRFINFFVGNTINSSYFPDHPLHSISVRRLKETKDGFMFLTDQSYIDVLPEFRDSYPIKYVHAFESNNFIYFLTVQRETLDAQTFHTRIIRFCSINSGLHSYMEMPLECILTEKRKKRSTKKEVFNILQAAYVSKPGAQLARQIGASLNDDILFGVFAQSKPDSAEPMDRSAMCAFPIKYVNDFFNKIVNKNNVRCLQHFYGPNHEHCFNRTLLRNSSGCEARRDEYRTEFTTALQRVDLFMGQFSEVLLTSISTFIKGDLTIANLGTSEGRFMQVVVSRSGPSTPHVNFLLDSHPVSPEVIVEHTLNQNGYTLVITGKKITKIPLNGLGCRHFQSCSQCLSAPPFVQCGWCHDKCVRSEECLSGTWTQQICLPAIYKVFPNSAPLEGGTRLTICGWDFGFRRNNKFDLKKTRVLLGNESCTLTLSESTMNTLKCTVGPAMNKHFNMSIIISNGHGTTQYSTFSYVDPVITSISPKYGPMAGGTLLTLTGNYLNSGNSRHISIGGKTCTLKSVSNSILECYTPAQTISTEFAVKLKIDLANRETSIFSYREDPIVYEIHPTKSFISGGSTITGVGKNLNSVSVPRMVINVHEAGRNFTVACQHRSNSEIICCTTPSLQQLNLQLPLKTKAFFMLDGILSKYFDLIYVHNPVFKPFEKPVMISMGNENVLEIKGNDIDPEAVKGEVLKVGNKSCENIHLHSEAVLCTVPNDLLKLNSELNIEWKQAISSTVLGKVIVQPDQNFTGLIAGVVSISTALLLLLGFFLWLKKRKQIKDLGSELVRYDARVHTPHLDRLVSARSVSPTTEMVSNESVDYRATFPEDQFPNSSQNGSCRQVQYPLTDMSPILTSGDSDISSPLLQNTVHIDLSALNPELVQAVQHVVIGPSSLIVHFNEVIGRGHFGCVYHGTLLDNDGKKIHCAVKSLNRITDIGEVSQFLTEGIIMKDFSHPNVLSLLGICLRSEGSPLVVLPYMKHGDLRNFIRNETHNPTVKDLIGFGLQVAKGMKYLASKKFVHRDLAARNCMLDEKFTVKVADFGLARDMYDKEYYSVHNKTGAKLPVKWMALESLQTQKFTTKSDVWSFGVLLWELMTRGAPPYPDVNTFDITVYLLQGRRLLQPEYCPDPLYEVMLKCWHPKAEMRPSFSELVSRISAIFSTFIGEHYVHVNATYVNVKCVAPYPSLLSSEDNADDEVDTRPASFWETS
UniProt P35222: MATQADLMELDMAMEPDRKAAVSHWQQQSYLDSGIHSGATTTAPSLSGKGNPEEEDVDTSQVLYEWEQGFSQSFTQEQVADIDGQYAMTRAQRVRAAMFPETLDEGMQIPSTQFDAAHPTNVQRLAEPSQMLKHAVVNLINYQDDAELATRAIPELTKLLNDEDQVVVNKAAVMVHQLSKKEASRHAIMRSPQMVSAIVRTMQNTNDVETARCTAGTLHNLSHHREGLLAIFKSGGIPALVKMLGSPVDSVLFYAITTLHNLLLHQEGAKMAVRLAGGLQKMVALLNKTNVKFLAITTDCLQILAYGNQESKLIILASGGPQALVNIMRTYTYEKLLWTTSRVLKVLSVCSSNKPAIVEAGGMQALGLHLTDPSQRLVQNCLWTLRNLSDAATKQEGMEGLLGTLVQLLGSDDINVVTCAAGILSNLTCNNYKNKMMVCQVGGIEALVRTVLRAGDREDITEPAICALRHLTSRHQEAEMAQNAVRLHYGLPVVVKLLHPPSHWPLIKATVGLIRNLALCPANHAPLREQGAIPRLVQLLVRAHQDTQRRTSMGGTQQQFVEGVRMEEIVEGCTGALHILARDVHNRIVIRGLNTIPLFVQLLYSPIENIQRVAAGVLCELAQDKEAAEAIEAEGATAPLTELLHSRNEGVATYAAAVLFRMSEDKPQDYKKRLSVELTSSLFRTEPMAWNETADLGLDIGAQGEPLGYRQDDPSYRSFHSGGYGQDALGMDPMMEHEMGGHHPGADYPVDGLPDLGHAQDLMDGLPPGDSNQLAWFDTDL

Assays:
[1] = molecular target: T1, HA-tagged PSPC1 (wild type) (UniProt Q8WXF1); experiment: condition: only treatment of the IP complex with calf-intestinal alkaline phosphatase (CIP); co-IP; IP/Western; the IP complex treated with nonspecific calf-intestinal alkaline phosphatase (CIP)
T1 sequence: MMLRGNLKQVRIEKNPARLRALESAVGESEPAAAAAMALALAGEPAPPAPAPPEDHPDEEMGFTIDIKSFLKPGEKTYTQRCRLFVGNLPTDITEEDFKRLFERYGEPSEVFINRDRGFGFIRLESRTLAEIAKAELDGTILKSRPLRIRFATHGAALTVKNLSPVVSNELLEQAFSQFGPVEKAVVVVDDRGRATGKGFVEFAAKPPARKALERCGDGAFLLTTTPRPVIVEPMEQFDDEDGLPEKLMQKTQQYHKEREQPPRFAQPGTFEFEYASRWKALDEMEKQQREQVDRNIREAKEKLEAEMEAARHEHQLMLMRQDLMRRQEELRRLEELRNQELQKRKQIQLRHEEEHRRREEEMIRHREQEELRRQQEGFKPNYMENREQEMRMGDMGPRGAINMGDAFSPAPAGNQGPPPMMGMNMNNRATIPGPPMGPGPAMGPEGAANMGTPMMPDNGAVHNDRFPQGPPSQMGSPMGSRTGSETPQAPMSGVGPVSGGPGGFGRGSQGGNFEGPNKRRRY

[2] = molecular target: T2, PSPC1-Y383F (UniProt Q8WXF1); experiment: co-IP; IP/Western of SK-hep1 cells ectopically expressing HA-tagged PSPC1 (wild type or mutants) and/or Flag-tagged PTK6; RIPA buffer (50 mM Tris-Cl pH 8.0, 150 mM NaCl, 1% NP-40), overnight at 4 °C
T2 sequence: T1 sequence with Y383F

[3] = molecular target: T1, HA-tagged PSPC1 (wild type); experiment: as above
[4] = molecular target: T3, Paraspeckle component 1 (PSPC1), endogenous (human (endogenous in Huh-7)) (UniProt Q8WXF1); experiment: co-IP; IP/Western of endogenous proteins in Huh-7 lysate; RIPA buffer (50 mM Tris-Cl pH 8.0, 150 mM NaCl, 1% NP-40), antibody or control IgG with Protein A/G Sepharose overnight at 4 °C; cells untreated or treated with HGF (10 ng/ml)
T3 sequence: T1 sequence

[5] = molecular target: T3, Paraspeckle component 1 (PSPC1), endogenous (human (endogenous in Huh-7)); experiment: co-IP; IP/Western of Huh-7 cells under HGF stimulation (10 ng/ml)
[6] = molecular target: Protein tyrosine kinase 6 (PTK6), endogenous (human (endogenous in Huh-7)) (UniProt Q13882); experiment: co-IP; IP/Western; with or without the c-Met inhibitor XL-184; cells not given
[7] = molecular target: T4, recombinant GST-PSPC1 (UniProt Q8WXF1); experiment: pull-down; GST-tagged PSPC1 incubated with recombinant PTK6 in GST pulldown buffer (100 mM Tris pH 8.0, 1% NP40, 150 mM NaCl) overnight at 4 °C, washed six times, Western blotting; both purified
T4 sequence: T1 sequence

[8] = molecular target: T5, PSPC1-Y523F (UniProt Q8WXF1); experiment: co-IP; IP/Western of SK-hep1 cells ectopically expressing HA-tagged PSPC1 (wild type or mutants) and/or Flag-tagged PTK6; RIPA buffer (50 mM Tris-Cl pH 8.0, 150 mM NaCl, 1% NP-40), overnight at 4 °C
T5 sequence: T1 sequence with Y523F

Flag-tagged PTK6 (wild type) (from UniProt Q13882 1-451) (enzyme)
binding [1]: no binding
binding [2]: binds
binding [3]: binds

PTK6 kinase-dead mutant, PTK6-KM (PTK6-K219M) (from UniProt Q13882 1-451) (enzyme)
binding [3]: no binding

Protein tyrosine kinase 6 (PTK6), endogenous (from UniProt Q13882 1-451) (enzyme)
binding [4]: binds
binding [5]: no binding (condition: under HGF stimulation (10 ng/ml))

c-Met (from UniProt P08581 25-1390) (receptor)
binding [6]: binds

recombinant PTK6 (Thermo-Fisher Scientific) (from UniProt Q13882 1-451) (enzyme)
binding [7]: binds

β-catenin (from UniProt P35222 1-781)
binding [4]: binds
binding [3]: binds
binding [8]: binds
